Reference: PubChem BioAssay (NCATS)
This list was built around the results that the source calls inconclusive (neither active nor inactive); the mix of calls is not that of the screen. Potencies beside an inconclusive call are fits to weak or partial responses and may not hold up. Activity calls are given as the source filed them. Calls come from the whole dose curve; as a rule, active = well fitted cell-killing curve with a large enough effect; inconclusive = small, poorly fitted or top-dose-only effect, or effect the other way; inactive = flat fitted curve, though single readings scatter.

Tested on: JEG-3
Assay: Primary qHTS to identify gynecologic anti-cancer compounds using libraries of approved drugs and bioactive compounds (AID 1345084); note: nearly all actives have a fitted effect of over 55% in size
Details: Gynecologic cancer cell panel viability, ATPlite luminescence, 48 h; series mostly up to 57.5 µM
How it was run: (§1)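 Measured: luminescence after ATPlite addition (15 min, RT). Exposure: 48 h, 37 C, 5% CO2.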
Potency is the fitted concentration of half-maximal effect; tags give direction and shape of the fitted curve.

| SMILES | Potency |
| --- | --- |
| CC(=O)NC1=NN(C(C)=O)C(C)(c2ccccc2)S1 (stereo not given) | inconclusive: 8.91 µM [cytotoxic, full curve] |
| Nc1ncnc2c1nc(N)n2[C@@H]1O[C@H](CO)[C@@H](O)[C@H]1O | active: 15.8 µM |
| C=C(CCC1=C(C)[C@H]2[C@H](CC3[C@@H]4CC=C5C[C@@H](O)C[C@@H](O)[C@]5(C)C4[C@H](O)C[C@@]32C)O1)CO[C@@H]1O[C@H](CO)[C@@H](O)[C@H](O)[C@H]1O (stereo not given in full) | inconclusive: 12.6 µM [cytotoxic, single point] |
| C=C1C(=O)O[C@H]2/C=C(/C)[C@@H](OC(C)=O)C/C=C(\C)C[C@@H](OC(=O)/C(=C/C)COC(=O)/C(=C/C)CO)[C@@H]12 | inconclusive: 17.8 µM [cytotoxic, single point] |
| Cc1ccccc1-n1c([C@H](C)Nc2nc(N)nc3nc[nH]c23)nc2cccc(C)c2c1=O | inconclusive: 20 µM [cytotoxic, partial curve, poor fit] |
| C/C1=C\CCC2=CC(OC2=O)C(C)(C)/C=C/C1=O (stereo not given) | inconclusive: 39.8 µM [cytotoxic, single point] |
| COc1cc2nc(N3CCN(C)CC3)nc(NC3CCN(Cc4ccccc4)CC3)c2cc1OC | inconclusive: 28.2 µM [cytotoxic, single point] |
| CC(=O)O[C@H]1CC(C)(C)CC2[C@]13CO[C@@]21CCC2[C@@]4(C)CC[C@H](O[C@@H]5OC[C@H](O[C@@H]6O[C@H](CO)[C@@H](O)[C@H](O)[C@H]6O[C@@H]6OC[C@@H](O[C@@H]7O[C@H](CO)[C@@H](O)[C@H](O)[C@H]7O)[C@H](O)[C@H]6O)[C@H](O)[C@H]5O[C@@H]5O[C@H](CO)[C@@H](O)[C@H](O)[C@H]5O)[C@@](C)(CO)C4CC[C@@]2(C)[C@]1(C)C[C@H]3O (stereo not given in full) | inconclusive: 6.31 µM [cytotoxic, single point] |
| CCN(CC)CCOc1ccc2c(c1)C(=O)c1cc(OCCN(CC)CC)ccc1-2 | inconclusive: 35.5 µM [cytotoxic, single point] |
| Cc1c(NC(=O)c2cc(C(N)=O)nc3cc(F)ccc23)c(C(F)(F)F)nn1Cc1ccc(C#N)cc1 | inactive |
| CN1CCc2cccc3c2[C@H]1Cc1ccc(O)c(O)c1-3 | inconclusive: 28.2 µM [cytotoxic, single point] |
| N#CC(c1ccnc(OCc2ccc(CN3CCOCC3)cc2)n1)c1nc2ccccc2s1 (stereo not given) | active: 10 µM |
| C=C1C(=O)O[C@@H]2C[C@H](C)[C@@H]3CC(=O)C(C)=C3C[C@H]12 | inconclusive: 39.8 µM [cytotoxic, single point] |
| Cc1c(NC(=O)OCC2COCCN2)cn2ncnc(Nc3ccc4c(cnn4Cc4cccc(F)c4)c3)c12 (stereo not given) | inconclusive: 39.8 µM [rising, single point] |

Tested on: OV90
Assay: as above
Details: Gynecologic cancer cell panel viability, ATPlite luminescence, 48 h; series mostly up to 57.5 µM
How it was run: as §1

| SMILES | Potency |
| --- | --- |
| CNC(=O)c1cccc(-c2ccc3c(N4CCOC[C@@H]4C)nc(N4CCOC[C@@H]4C)nc3n2)c1 | active: 1.26 µM |
| Nc1ncnc2c1nc(N)n2[C@@H]1O[C@H](CO)[C@@H](O)[C@H]1O | active: 3.55 µM |
| COc1ccc(F)cc1-c1cc(NC(=O)[C@@H]2CCCNC2)ncc1Cl | inconclusive: 0.708 µM [cytotoxic, full curve, poor fit] |
| C=C(CCC1=C(C)[C@H]2[C@H](CC3[C@@H]4CC=C5C[C@@H](O)C[C@@H](O)[C@]5(C)C4[C@H](O)C[C@@]32C)O1)CO[C@@H]1O[C@H](CO)[C@@H](O)[C@H](O)[C@H]1O (stereo not given in full) | inconclusive: 12.6 µM [cytotoxic, single point] |
| C/C1=C\CCC2=CC(OC2=O)C(C)(C)/C=C/C1=O (stereo not given) | inconclusive: 39.8 µM [cytotoxic, single point] |
| COc1cc2nc(N3CCN(C)CC3)nc(NC3CCN(Cc4ccccc4)CC3)c2cc1OC | active: 22.4 µM |
| CC(=O)O[C@H]1CC(C)(C)CC2[C@]13CO[C@@]21CCC2[C@@]4(C)CC[C@H](O[C@@H]5OC[C@H](O[C@@H]6O[C@H](CO)[C@@H](O)[C@H](O)[C@H]6O[C@@H]6OC[C@@H](O[C@@H]7O[C@H](CO)[C@@H](O)[C@H](O)[C@H]7O)[C@H](O)[C@H]6O)[C@H](O)[C@H]5O[C@@H]5O[C@H](CO)[C@@H](O)[C@H](O)[C@H]5O)[C@@](C)(CO)C4CC[C@@]2(C)[C@]1(C)C[C@H]3O (stereo not given in full) | inconclusive: 2.82 µM [cytotoxic, partial curve, poor fit] |
| CCN(CC)CCOc1ccc2c(c1)C(=O)c1cc(OCCN(CC)CC)ccc1-2 | active: 12.6 µM |
| O=S(=O)(N[C@H]1CCCC[C@@H]1N1CCOCC1)c1ccc(Cl)cc1 | inconclusive: 28.2 µM [cytotoxic, partial curve, poor fit] |
| N#CC(c1ccnc(OCc2ccc(CN3CCOCC3)cc2)n1)c1nc2ccccc2s1 (stereo not given) | active: 7.94 µM |
| CC(=O)O[C@@](C)(C(=O)/C=C/C(C)(C)O)[C@H]1[C@H](O)C[C@@]2(C)[C@@H]3CC=C4[C@@H](C=C(O)C(=O)C4(C)C)[C@]3(C)C(=O)C[C@]12C | active: 4.47 µM |
| Cc1cc(C)c(Nc2ccnc(Nc3ccc(C#N)cc3)n2)c(C)c1 | active: 10 µM |
| C=C1C(=O)O[C@@H]2C[C@H](C)[C@@H]3CC(=O)C(C)=C3C[C@H]12 | inconclusive: 39.8 µM [cytotoxic, single point] |
| CCNC(=O)C#Cc1ccc2c(C(=Nc3ccc(CN(C)C)cc3)c3ccccc3)c(O)[nH]c2c1 | active: 0.447 µM |
| CC(=O)NCC(=O)N1C2CCC1c1cc(Nc3ncc(C(F)(F)F)c(NC4CCC4)n3)ccc12 (stereo not given) | inconclusive: 12.6 µM [cytotoxic, partial curve, poor fit] |
| CN1CCN(c2ccc(C(=O)Nc3n[nH]c4ccc(Cc5cc(F)cc(F)c5)cc34)c(NC3CCOCC3)c2)CC1 | inconclusive: 31.6 µM [cytotoxic, partial curve, poor fit] |
